# From the supplement of paper PMC8728848
# The list shows a part of the results.
# Experiments:
# Assay in all cases: glycan array binding signal (z-score within array); higher = stronger binding
# Details in all cases: glycan notation: IUPAC condensed, linker removed
# [1] = target: Fuc(a1-2)Gal(b1-4)[Fuc(a1-3)]GlcNAc(b1-2)[Fuc(a1-2)Gal(b1-4)[Fuc(a1-3)]GlcNAc(b1-4)]Man(a1-3)[Fuc(a1-2)Gal(b1-4)[Fuc(a1-3)]GlcNAc(b1-2)Man(a1-6)]Man(b1-4)GlcNAc(b1-4)GlcNAc
# Outline: (§1)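 Glycan array data came from 3228 arrays in the Consortium for Functional Glycomics database, and only arrays with an available protein sequence were kept. Glycan names were put into IUPAC-condensed notation, and columns mapping to the same glycan were averaged. The binding signal is a within-array Z-score, averaged across arrays of one protein sequence run at different concentrations or buffers and across linkers. A negative Z-score can be read as non-binding.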
# [2] = target: Fuc(a1-2)Gal(b1-4)[Fuc(a1-3)]GlcNAc(b1-3)Gal(b1-4)[Fuc(a1-3)]GlcNAc
# Outline: as §1
# [3] = target: Fuc(a1-2)Gal(b1-4)[Fuc(a1-3)]GlcNAc(b1-3)Gal(b1-4)[Fuc(a1-3)]GlcNAc(b1-3)Gal(b1-4)[Fuc(a1-3)]GlcNAc
# Outline: as §1
# [4] = target: Fuc(a1-2)Gal(b1-4)[Fuc(a1-3)]GlcNAc(b1-3)GalNAc
# Outline: as §1
# [5] = target: Fuc(a1-2)Gal6S(b1-4)Glc
# Outline: as §1
# [6] = target: Fuc(a1-2)Gal6S(b1-4)Glc6S
# Outline: as §1
# [7] = target: Fuc(a1-2)Gal6S(b1-4)GlcNAc
# Outline: as §1
# [8] = target: Fuc(a1-2)[Gal(a1-3)]Gal
# Outline: as §1
# [9] = target: Fuc(a1-2)[Gal(a1-3)]Gal(b1-3)GlcNAc
# Outline: as §1
# [10] = target: Fuc(a1-2)[Gal(a1-3)]Gal(b1-3)GlcNAc(b1-2)Man(a1-3)[Fuc(a1-2)[Gal(a1-3)]Gal(b1-3)GlcNAc(b1-2)Man(a1-6)]Man(b1-4)GlcNAc(b1-4)GlcNAc
# Outline: as §1
# [11] = target: Fuc(a1-2)[Gal(a1-3)]Gal(b1-3)GlcNAc(b1-3)GalNAc
# Outline: as §1
# [12] = target: Fuc(a1-2)[Gal(a1-3)]Gal(b1-4)Glc
# Outline: as §1
# [13] = target: Fuc(a1-2)[Gal(a1-3)]Gal(b1-4)GlcNAc
# Outline: as §1
# [14] = target: Fuc(a1-2)[Gal(a1-3)]Gal(b1-4)GlcNAc(b1-2)Man(a1-3)[Fuc(a1-2)[Gal(a1-3)]Gal(b1-4)GlcNAc(b1-2)Man(a1-6)]Man(b1-4)GlcNAc(b1-4)GlcNAc
# Outline: as §1
# [15] = target: Fuc(a1-2)[Gal(a1-3)]Gal(b1-4)GlcNAc(b1-2)Man(a1-3)[Fuc(a1-2)[Gal(a1-3)]Gal(b1-4)GlcNAc(b1-2)Man(a1-6)]Man(b1-4)GlcNAc(b1-4)[Fuc(a1-6)]GlcNAc
# Outline: as §1
# [16] = target: Fuc(a1-2)[Gal(a1-3)]Gal(b1-4)GlcNAc(b1-3)GalNAc
# Outline: as §1
# [17] = target: Fuc(a1-2)[Gal(a1-3)]Gal(b1-4)[Fuc(a1-3)]Glc
# Outline: as §1
# [18] = target: Fuc(a1-2)[Gal(a1-3)]Gal(b1-4)[Fuc(a1-3)]GlcNAc
# Outline: as §1
# [19] = target: Fuc(a1-2)[Gal(a1-3)]Gal(b1-4)[Fuc(a1-3)]GlcNAc(b1-3)GalNAc
# Outline: as §1
# [20] = target: Fuc(a1-2)[Gal(a1-4)]Gal(b1-4)GlcNAc
# Outline: as §1
# [21] = target: Fuc(a1-2)[GalNAc(a1-3)]Gal
# Outline: as §1
# [22] = target: Fuc(a1-2)[GalNAc(a1-3)]Gal(b1-3)GalNAc(a1-3)[Fuc(a1-2)]Gal(b1-4)GlcNAc
# Outline: as §1
# [23] = target: Fuc(a1-2)[GalNAc(a1-3)]Gal(b1-3)GlcNAc
# Outline: as §1
# [24] = target: Fuc(a1-2)[GalNAc(a1-3)]Gal(b1-3)GlcNAc(b1-2)Man(a1-3)[Fuc(a1-2)[GalNAc(a1-3)]Gal(b1-3)GlcNAc(b1-2)Man(a1-6)]Man(b1-4)GlcNAc(b1-4)GlcNAc
# Outline: as §1
# [25] = target: Fuc(a1-2)[GalNAc(a1-3)]Gal(b1-3)GlcNAc(b1-3)GalNAc
# Outline: as §1
# [26] = target: Fuc(a1-2)[GalNAc(a1-3)]Gal(b1-4)Glc
# Outline: as §1
# [27] = target: Fuc(a1-2)[GalNAc(a1-3)]Gal(b1-4)GlcNAc
# Outline: as §1
# [28] = target: Fuc(a1-2)[GalNAc(a1-3)]Gal(b1-4)GlcNAc(b1-2)Man(a1-3)[Fuc(a1-2)[GalNAc(a1-3)]Gal(b1-4)GlcNAc(b1-2)Man(a1-6)]Man(b1-4)GlcNAc(b1-4)GlcNAc
# Outline: as §1
# [29] = target: Fuc(a1-2)[GalNAc(a1-3)]Gal(b1-4)GlcNAc(b1-3)Gal(b1-4)GlcNAc
# Outline: as §1
# [30] = target: Fuc(a1-2)[GalNAc(a1-3)]Gal(b1-4)GlcNAc(b1-3)Gal(b1-4)GlcNAc(b1-3)Gal(b1-4)GlcNAc
# Outline: as §1
# [31] = target: Fuc(a1-2)[GalNAc(a1-3)]Gal(b1-4)GlcNAc(b1-3)GalNAc
# Outline: as §1
# [32] = target: Fuc(a1-2)[GalNAc(a1-3)]Gal(b1-4)[Fuc(a1-3)]GlcNAc
# Outline: as §1
# [33] = target: Fuc(a1-2)[GalNAc(a1-3)]Gal(b1-4)[Fuc(a1-3)]GlcNAc(b1-3)GalNAc
# Outline: as §1
# [34] = target: Fuc(a1-2)[GalNAc(a1-4)]Gal(b1-4)GlcNAc
# Outline: as §1
# [35] = target: Fuc(a1-2)[GalNAc(b1-3)]Gal
# Outline: as §1
# [36] = target: Fuc(a1-3)GlcNAc
# Outline: as §1
# [37] = target: Fuc(a1-3)[Gal(b1-4)]Glc6S
# Outline: as §1
# [38] = target: Fuc(a1-3)[Gal(b1-4)]GlcNAc
# Outline: as §1
# [39] = target: Fuc(a1-3)[Gal(b1-4)]GlcNAc(b1-2)Man(a1-3)[Fuc(a1-3)[Gal(b1-4)]GlcNAc(b1-2)Man(a1-6)]Man(b1-4)GlcNAc(b1-4)GlcNAc
# Outline: as §1
# [40] = target: Fuc(a1-3)[Gal(b1-4)]GlcNAc(b1-2)Man(a1-3)[Fuc(a1-3)[Gal(b1-4)]GlcNAc(b1-2)Man(a1-6)]Man(b1-4)GlcNAc(b1-4)[Fuc(a1-6)]GlcNAc
# Outline: as §1
# [41] = target: Fuc(a1-3)[Gal(b1-4)]GlcNAc(b1-3)Gal(b1-3)[Fuc(a1-4)]GlcNAc
# Outline: as §1
# [42] = target: Fuc(a1-3)[Gal(b1-4)]GlcNAc(b1-3)GalNAc
# Outline: as §1
# [43] = target: Fuc(a1-3)[Gal(b1-4)]GlcNAc(b1-4)Gal(b1-4)[Fuc(a1-3)]GlcNAc
# Outline: as §1
# [44] = target: Fuc(a1-3)[Gal(b1-4)]GlcNAc(b1-4)Gal(b1-4)[Fuc(a1-3)]GlcNAc(b1-4)Gal(b1-4)[Fuc(a1-3)]GlcNAc
# Outline: as §1
# [45] = target: Fuc(a1-3)[Gal(b1-4)]GlcNAc(b1-6)[Gal(b1-3)GlcNAc(b1-3)]Gal(b1-4)Glc
# Outline: as §1
binder,measurement,setting,value
Gal 3 (Canis lupus) (protein) MADSFSLNDALSGSGNPNPQGWPGPWGNQPAGAGGYPGASYPGAYPGQAPPGGYPGQAPPGGYPGQAPPGGYPGQAPPGGYPGQAPPGGYPGQAPPGTYPGPTAPAYPGPTAPGTQPGQPSGPGAYPPPGQPSAPGAYPAAGPFGIPAGPLTVPYDLPLPGGVKPRMLITILGTVRPSANRLALDFKRGNDVAFHFNPRFNEDNKRVIVCNTKLDNIWGKEERQAAFPFESGKPFKIQVLVESDHFKVAVNDAHLLQYNHRMKNLPEISKLGISGDIDLTSASYAMI,glycan array binding signal (z-score),[1],-0.147
same,glycan array binding signal (z-score),[2],-0.263
same,glycan array binding signal (z-score),[3],-0.223
same,glycan array binding signal (z-score),[4],-0.133
same,glycan array binding signal (z-score),[5],-0.251
same,glycan array binding signal (z-score),[6],-0.253
same,glycan array binding signal (z-score),[7],-0.254
same,glycan array binding signal (z-score),[8],-0.254
same,glycan array binding signal (z-score),[9],0.998
same,glycan array binding signal (z-score),[10],1.08
same,glycan array binding signal (z-score),[11],-0.147
same,glycan array binding signal (z-score),[12],-0.07
same,glycan array binding signal (z-score),[13],2.33
same,glycan array binding signal (z-score),[14],7.41
same,glycan array binding signal (z-score),[15],4.22
same,glycan array binding signal (z-score),[16],0
same,glycan array binding signal (z-score),[17],-0.118
same,glycan array binding signal (z-score),[18],-0.239
same,glycan array binding signal (z-score),[19],-0.139
same,glycan array binding signal (z-score),[20],-0.236
same,glycan array binding signal (z-score),[21],-0.268
same,glycan array binding signal (z-score),[22],-0.004
same,glycan array binding signal (z-score),[23],0.32
same,glycan array binding signal (z-score),[24],0.406
same,glycan array binding signal (z-score),[25],-0.152
same,glycan array binding signal (z-score),[26],0.168
same,glycan array binding signal (z-score),[27],1.64
same,glycan array binding signal (z-score),[28],7.54
same,glycan array binding signal (z-score),[29],5.05
same,glycan array binding signal (z-score),[30],5.42
same,glycan array binding signal (z-score),[31],-0.128
same,glycan array binding signal (z-score),[32],-0.253
same,glycan array binding signal (z-score),[33],-0.144
same,glycan array binding signal (z-score),[34],-0.257
same,glycan array binding signal (z-score),[35],-0.272
same,glycan array binding signal (z-score),[36],-0.247
same,glycan array binding signal (z-score),[37],-0.242
same,glycan array binding signal (z-score),[38],-0.26
same,glycan array binding signal (z-score),[39],-0.259
same,glycan array binding signal (z-score),[40],-0.155
same,glycan array binding signal (z-score),[41],-0.263
same,glycan array binding signal (z-score),[42],-0.246
same,glycan array binding signal (z-score),[43],-0.254
same,glycan array binding signal (z-score),[44],-0.249
same,glycan array binding signal (z-score),[45],-0.225
